Measurements as given in the RNAGym collection of RNA variant scans (doi:10.7554/elife.90254).
Read counts are not given, so values of variants with three or more changes are uncertain.

B1: LINE1-full (parent)
chain: UACGUAGGUGGUUUUCCCCUGAUAGUGCUAAGGGGGCCUGGAAGUUUGGACUGGGCAGAGCUCAACACAGCGUGGCAAAGUGGCUGUGGCUAGACUGCCUCUCUGGAUUCCUCGUCACUCAGCAGGGCAUCUCUGAGAGAAAUGCC

Variants of: B1
Test: self-cleavage, relative activity (ratio to wild type); higher = more cleavage; in vitro, sequencing; the parent is a self-cleaving ribozyme

Variant | self-cleavage
U14G U62C U102A A121U | 0
U14G U91C U115C | 1.15
U14G U108C G135A | 0.65
U15A A22G U52C U62A A67C | 0.1
U15A A22G U62C A64G | 0
U15A A22G U112A A124U | 1.58
U15A A24G U73C A78U U109C G126A A142G | 2.58
U15A A24U G32A A64G | 0.34
U15A A30G U47C A64U A79G | 0.92
U15A A30G U87C U96A U112C | 0
U15A A31U G144A | 0.93
U15A A42G A43G A67U U109A | 0.25
U15A A42G A59G | 0.21
U15A A43G A59U G127U | 0.34
U15A A43G A94G A121C G122U | 0
U15A A43G G58U | 0.04
U15A A43G U102C | 0.39
U15A A50G U112C | 0.77
U15A A57C U102A | 0.13
U15A A57U A59C A64G A67U | 0
U15A A57U A117G | 0
U15A A59G A141G | 0.14
U15A A59G C95U U109A | 0.09
U15A A64U U87C | 0.11

Variant | self-cleavage
U15A A64U U130C | 0.57
U15A A67G U100C | 0
U15A A67U A138G | 0.23
U15A A69G A79G A121G G122A A142G | 0.26
U15A A69U A140G | 0.06
U15A A69U G127C U132C | 0.24
U15A A69U U132C | 0.14
U15A A78G C120G A121G | 1.02
U15A A78G U85A A121G | 0.11
U15A A78U A136G U143C | 1.95
U15A A79C G88A | 0.06
U15A A79G U91C U108C | 1.23
U15A A94G U115A A141G | 0.38
U15A A94U A141G | 0.26
U15A A136G A138G | 1.02
U15A C16A A78G A140G | 0.27
U15A C16U A31U A124G | 0.25
U15A C28G A92C G135A | 0.52
U15A C38A U62C A136U | 0.03
U15A C38U G58A A141G | 0.07
U15A C99A A138G A140G | 0.08
U15A G32A G135A | 2.21
U15A G32A U119A A124G | 0.68
U15A G35A G58A U112A | 0.02

Variant | self-cleavage
U15A G36A G60A U130C | 0.07
U15A G54A U100A | 0.18
U15A G60A A79G U115C U132G A141G | 0.23
U15A G72A A107G | 1.14
U15A U20G A42G | 1.11
U15A U20G C56U U134C | 0.41
U15A U23A A42G A129G A138G | 1.53
U15A U26A A65C U81A | 0.04
U15A U26A A78U A94G U115A | 0.78
U15A U26A U46C | 1.79
U15A U26A U112C A140G | 0.33
U15A U26C G35U U46A C76U U96C G139A | 0.13
U15A U26C U46C C66U | 0
U15A U39A U52A A67U C113U | 0.11
U15A U39C A42G | 0.48
U15A U39G U87A | 0.09
U15A U46A A50G A129G | 1.04
U15A U47A G97A | 0.07
U15A U47C A136U | 1.84
U15A U52A A69G U104C | 0.4
U15A U52C A140G | 1.13
U15A U52C C118U | 0.78
U15A U52C C146U | 1.74
U15A U62A A64U U85C | 0.17

Variant | self-cleavage
U15A U62A A121G | 0.24
U15A U62C A121C | 0
U15A U62C U81C | 0
U15A U62C U102C A136G | 0
U15A U73C U91A U115C | 0
U15A U73G U143C | 0.91
U15A U85C A141G | 0
U15A U87A U104A U132C | 0.11
U15A U96C U108C | 0.31
U15A U100C G106A A124G U130C | 1.58
U15A U108A C111A | 1.58
U15A U115C A141G | 1.13
U15C A22G A79G A107U U108C U109A C111A | 1.84
U15C A22G U52A U62C U109A A117G | 0.33
U15C A22G U62C | 0.34
U15C A22G U96A U104C A141U | 0.23
U15C A22G U112C | 1.02
U15C A24G A64G U73A U102A | 1.12
U15C A24G A64U A78G | 0.59
U15C A24G A121G | 0
U15C A24G A142G | 0
U15C A24U A69G U115C | 0
U15C A24U A79U A129G | 2.5
U15C A24U U46C U96C G135A | 0.56

Variant | self-cleavage
U15C A30G G44U A92U | 0.93
U15C A30G U39C G80A U130C | 1.53
U15C A30G U52A | 0.76
U15C A31G A124G A136G | 1.62
U15C A31G G34A A57U U73C U100C A121U G135A | 0.52
U15C A31G U45C | 1.6
U15C A31G U102C U112C | 1.97
U15C A31G U104A | 1.12
U15C A42G G83C U100C | 0.57
U15C A42G G89A | 0.05
U15C A42G U45A | 0.88
U15C A42G U46A U104C A140G | 1.31
U15C A42G U62C U112A A142G | 0
U15C A42U U52A | 1.79
U15C A42U U52C G74A G127C | 1.7
U15C A43G A64U A65G | 0.11
U15C A43G C56U A124G A141G | 0.24
U15C A43G G48A U108C | 1.88
U15C A43G U91C A138G | 0
U15C A43U A124C | 1.53
U15C A50G A117U | 0.84
U15C A50G G93U | 0.05
U15C A50G U85C A136G | 0.84
U15C A50G U100C A117U U132C | 1.53

Variant | self-cleavage
U15C A50G U132C | 1.88
U15C A50U A65C U81A U104C U130C | 0
U15C A50U A65C U132A | 0.08
U15C A50U C113U A129G | 1.64
U15C A50U U73C U134C | 1.34
U15C A50U U85C A129U | 0.12
U15C A57C G72A U115C | 0.04
U15C A57U A59G U102A U143C | 0.08
U15C A57U A59U U73C A140G | 0.03
U15C A57U C99U U112C A136U | 0
U15C A59G A77G | 0.18
U15C A59U U73A | 0.75
U15C A59U U73A A92G | 0.05
U15C A59U U115C | 0.99
U15C A64G A67G | 0
U15C A64G A69G | 0
U15C A64G U81A | 0.5
U15C A64U A129G A140G | 0.76
U15C A64U U100C U134A | 0.77
U15C A65G C98U A117U | 0
U15C A65G G82A A117U | 0.04
U15C A65G U119A | 0
U15C A65U C103G | 0.11
U15C A67G A69U A129G U143C | 0

Variant | self-cleavage
U15C A67G U81C A140G | 0
U15C A69G G75A | 0.23
U15C A69G U134G | 2.04
U15C A69U A121U | 0.13
U15C A69U U73C A136G | 0
U15C A69U U115C | 0.18
U15C A77G A136G | 1.91
U15C A77U A79G U115C | 2.84
U15C A77U A94G U132C U134A A138G | 0.22
U15C A78U A94G A142G | 0.18
U15C A79G U81A | 2.27
U15C A79G U87C G126A A129G A136G | 0
U15C A79G U91A | 1.33
U15C A94G U102A | 0.2
U15C A94G U143C | 0.32
U15C A117G A138U | 0.81
U15C A121G A138G | 2.48
U15C A121U U130A | 1.44
U15C A121U U134C | 1.66
U15C A124G A142G | 1.11
U15C A124G U130A A136G | 2.71
U15C A140U A142G | 0.64
U15C C16U U52A | 1.18
